In PubChem BioAssay AID1347165 (National Center for Advancing Translational Sciences (NCATS), 2019):
In all, about 220,000 compounds went through this assay and about 5,700 (2.6%) were called active. The shares of active, inactive and inconclusive entries below differ from those in the screen. The call rests on the fitted dose curve; in most records, active means well fitted inhibition curve with a large enough effect; inconclusive means small, poorly fitted or top-dose-only effect; inactive means no such curve, though single readings can be large or run the other way. A potency beside an inconclusive call is a rough fit, not a confirmed value.

Target: Lysine-specific demethylase 5B (Homo sapiens) (UniProt Q9UGL1)
Experiment: Primary screen for KDM5B Histone Demethylases FDH-coupled qHTS; further: nearly all actives have a fitted effect of over 70% in size; on activity change, negative = inhibition: 0% is about no effect
Settings: FDH-coupled NADH fluorescence (FDH is formaldehyde dehydrogenase); activity change, negative = inhibition: at 57.7 µM (top of the series) unless noted
In short: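 Measured: NADH fluorescence change, 30 min, RT. System: KDM5BΔAP 200 nM final, H3K4me3 peptide, α-KG, Fe(II), ascorbate, NAD⁺ plus FDH, pH 7.5 HEPES. Compounds: titrated, 10 min pre-incubation with enzyme.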
Potency means the concentration at half of the fitted maximal effect; tags describe the fitted curve by direction and shape.

Sequence of UniProt Q9UGL1 (Q9UGL1 whole entry, looked up): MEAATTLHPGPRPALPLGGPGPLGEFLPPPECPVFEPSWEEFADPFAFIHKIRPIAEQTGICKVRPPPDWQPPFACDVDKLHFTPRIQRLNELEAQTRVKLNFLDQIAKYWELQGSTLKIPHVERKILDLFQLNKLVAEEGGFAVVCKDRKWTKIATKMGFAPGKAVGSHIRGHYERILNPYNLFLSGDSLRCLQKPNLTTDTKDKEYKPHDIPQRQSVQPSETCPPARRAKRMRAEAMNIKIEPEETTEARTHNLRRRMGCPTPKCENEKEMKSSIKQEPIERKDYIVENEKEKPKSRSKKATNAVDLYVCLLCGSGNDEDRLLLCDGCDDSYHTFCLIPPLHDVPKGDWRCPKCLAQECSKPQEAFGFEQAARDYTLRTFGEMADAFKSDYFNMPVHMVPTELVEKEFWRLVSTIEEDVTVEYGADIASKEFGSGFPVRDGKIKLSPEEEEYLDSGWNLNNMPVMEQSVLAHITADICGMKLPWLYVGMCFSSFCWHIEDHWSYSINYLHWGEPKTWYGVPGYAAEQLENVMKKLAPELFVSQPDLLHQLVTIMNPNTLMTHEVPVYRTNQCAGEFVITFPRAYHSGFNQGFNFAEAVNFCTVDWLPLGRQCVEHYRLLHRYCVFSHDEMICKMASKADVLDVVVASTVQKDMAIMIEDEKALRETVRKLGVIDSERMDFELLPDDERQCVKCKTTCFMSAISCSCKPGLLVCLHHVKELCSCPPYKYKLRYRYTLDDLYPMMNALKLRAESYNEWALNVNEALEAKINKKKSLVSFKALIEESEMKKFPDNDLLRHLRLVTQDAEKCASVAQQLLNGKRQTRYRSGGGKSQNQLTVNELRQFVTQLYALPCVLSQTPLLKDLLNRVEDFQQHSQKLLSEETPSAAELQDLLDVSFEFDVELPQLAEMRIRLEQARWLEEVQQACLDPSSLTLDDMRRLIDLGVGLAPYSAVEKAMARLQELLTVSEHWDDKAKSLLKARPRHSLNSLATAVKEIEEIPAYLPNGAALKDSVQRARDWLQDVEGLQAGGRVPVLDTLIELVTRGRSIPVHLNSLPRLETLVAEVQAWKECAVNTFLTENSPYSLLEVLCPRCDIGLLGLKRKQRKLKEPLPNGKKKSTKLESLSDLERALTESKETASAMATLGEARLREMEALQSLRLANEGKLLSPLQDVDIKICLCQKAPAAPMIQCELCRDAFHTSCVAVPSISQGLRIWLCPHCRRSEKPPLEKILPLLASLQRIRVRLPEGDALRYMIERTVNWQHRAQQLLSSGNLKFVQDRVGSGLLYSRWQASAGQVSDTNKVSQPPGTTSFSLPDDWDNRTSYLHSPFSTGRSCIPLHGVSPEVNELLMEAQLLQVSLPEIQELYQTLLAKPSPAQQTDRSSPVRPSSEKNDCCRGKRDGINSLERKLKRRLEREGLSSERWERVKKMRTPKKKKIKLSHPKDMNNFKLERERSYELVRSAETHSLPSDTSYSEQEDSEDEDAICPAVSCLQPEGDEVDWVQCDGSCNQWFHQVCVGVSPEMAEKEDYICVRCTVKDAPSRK

| SMILES | Potency | activity change, negative = inhibition |
| --- | --- | --- |
| CCOc1ccc(CCNC(=O)c2cc3c(-c4ccccc4F)nn(C)c3s2)cc1 | inconclusive: 28.2 µM [inhibitor, partial curve, poor fit] |  |
| COc1cc2c(cc1OC)C(C[C@H]1CN(C(=O)c3ccc4c(c3)OCO4)CC[C@H]1CC(=O)O)=NCC2 | active: 31.6 µM |  |
| Cc1nc(-c2ccc(OC3CCN(C(=O)Nc4ccccc4)C3)cc2)no1 (centres undefined) |  | inactive: 7.39% |
| COCCn1c(-c2ccc(SC)cc2)nc2c1c(=O)[nH]c(=O)n2CC(C)C | inconclusive: 8.91 µM [inhibitor, partial curve, poor fit] |  |
| COc1ccccc1CNC(=O)C1CCN(c2nc3ccc(C)cc3[nH]2)CC1 |  | inconclusive: -35.1% [inhibitor] |
| COc1ccc2nc([C@H]3CCN(Cc4ccc(F)c(F)c4)C3)[nH]c2c1 | inconclusive: 31.6 µM [inhibitor, partial curve, poor fit] |  |
| Cc1ccccc1-n1c(SCC(=O)NC(C)c2cc3ccccc3o2)nnc1N1CCOCC1 (centres undefined) |  | inactive: -6.84% |
| CSc1ccc(/C=C/c2nc(=O)c3ccccc3o2)cc1 | inconclusive: 39.8 µM [inhibitor, single point] |  |
| CN(C)CC(=O)N1CCC2(C1)CN(C)c1ccc(C(=O)Nc3ccccc3)cc12 (centres undefined) | inconclusive: 39.8 µM [inhibitor, partial curve, poor fit] |  |
| Cc1ccc2nc(/C(C#N)=C/c3ccccc3F)[nH]c2c1 | inconclusive: 35.5 µM [inhibitor, partial curve, poor fit] |  |
| Cc1cccc(OCCSc2nnc(-c3cccs3)o2)c1 | inconclusive: 25.1 µM [inhibitor, single point] |  |
| O=C(COc1ccc2c(=O)c(-c3ccccc3Cl)coc2c1)Nc1ccccc1Cl |  | inactive: 14.1% |
| Clc1ccccc1OCCSc1nnc(-c2cccs2)o1 | inconclusive: 35.5 µM [inhibitor, single point] |  |
| Cc1cc(=O)oc2cc(NC(=O)CCOc3ccccc3)ccc12 | inconclusive: 39.8 µM [inhibitor, partial curve, poor fit] |  |
| Cn1cnc(CN2CCNc3cc(Nc4ccccc4)ncc3C2)c1 |  | inactive: -25.7% [at 86.2 µM] |
| Cn1c(=O)c2c(ncn2CC(=O)Nc2ccccc2Cc2ccccc2)n(C)c1=O |  | inactive: 0.95% |
| NC[C@H]1O[C@@H](CO)[C@@H](O)[C@H]1N1CCN(c2ccccn2)CC1 | inconclusive: 35.5 µM [inhibitor, partial curve] |  |
| CC(C)N1C(=O)C2(CCCC2)C1C(=O)N1CCc2ccccc21 (centres undefined) |  | inactive: -7.29% |
| COc1cccc(NC(=O)C2CCN(c3ccc(Sc4ccc(C)cc4)nn3)CC2)c1 | inconclusive: 1.58 µM [inhibitor, full curve, poor fit] |  |
| CC(=O)Nc1ccc(CN2CCC[C@H]2c2nc(-c3ccc(N4CCC(C(N)=O)CC4)nc3)no2)cc1 | inconclusive: 31.6 µM [inhibitor, partial curve, poor fit] |  |
| Cc1nc2scc(CC(=O)NC3CC3)n2c(=O)c1-c1cc(C)n(-c2ccccc2F)n1 | inconclusive: 28.2 µM [inhibitor, partial curve, poor fit] |  |
| CCOC(=O)CCCOc1cccn2c(=O)c(-c3cc(C)n(-c4ccc(Cl)cc4)n3)c(C)nc12 | active: 25.1 µM |  |

| SMILES | Potency | activity change, negative = inhibition |
| --- | --- | --- |
| CC(C)Oc1ccc(CNC(=O)CC2CCOCC2)cc1 | inconclusive: 35.5 µM [inhibitor, single point] |  |
| Cc1cccc(C(=O)N2CCc3cc(CNC(=O)c4cc5ccccc5[nH]4)ccc32)c1 |  | inconclusive: -35.2% [inhibitor] |
| Cc1ccc(CNC(=O)C(C)n2c(=O)cc(C(F)(F)F)c3c(C)nn(C)c32)cc1 (centres undefined) | inconclusive: 5.62 µM [inhibitor, partial curve, poor fit] |  |
| O=S(=O)(c1ccccc1)c1nc(-c2ccccc2Cl)oc1N1CCCCCC1 | inconclusive: 39.8 µM [inhibitor, single point] |  |
| CC(C)=CC1C(C(=O)NCC(C)(C)N2CCOCC2)C1(C)C (centres undefined) |  | inactive: -7.48% |
| COc1cc(Cl)ccc1-c1ccc(COc2ccc3c(cnn3CCC(=O)O)c2)cc1 | inconclusive: 44.7 µM [inhibitor, single point] |  |
| CNCC(=O)N1CCC(n2nccc2NC(=O)Nc2ccccc2C)CC1 | inconclusive: 7.94 µM [inhibitor, full curve, poor fit] |  |
| O=C(c1ccoc1)N1CCCC1c1nc(C2CCOCC2)no1 (centres undefined) |  | inactive: -29.9% |
| OC[C@@H]1CN(Cc2cccc3[nH]ccc23)C[C@H]1c1ccncc1 | active: 25.1 µM |  |
| COc1ccc(CCNC(=O)c2ccc3c(c2)sc2nc(-c4ccccc4)cn23)cc1OC | inconclusive: 8.91 µM [inhibitor, partial curve, poor fit] |  |
| Cc1ccccc1N(C)S(=O)(=O)c1nnc(NC(=O)c2ccco2)s1 | inconclusive: 28.2 µM [inhibitor, partial curve, poor fit] |  |
| COc1ccc(NC(=O)N2C[C@@H]3C[C@H](C2)c2ccc(NS(=O)(=O)c4ccc(OC)cc4)c(=O)n2C3)cc1 | inconclusive: 28.2 µM [inhibitor, partial curve, poor fit] |  |
| N#Cc1nc(-c2ccc(S(=O)(=O)N3CCCCCC3)cc2)oc1NCc1ccco1 | inconclusive: 39.8 µM [inhibitor, partial curve, poor fit] |  |
| CC(C)CC(NC(=O)C(c1ccccc1)c1ccccc1)c1ccccc1 (centres undefined) | inconclusive: 25.1 µM [inhibitor, single point] |  |
| Cc1ccc(C(=O)N2CCN(c3nnc4cccc(C)n34)CC2)cc1C | active: 25.1 µM |  |
| COc1ncccc1C(=O)N1CCCC(c2nnc(Cn3ccnc3)n2C)C1 (centres undefined) |  | inactive: -8.69% |
| Cc1cccc(N2CCN(C(=O)c3noc(-c4ccc[nH]c4=O)n3)CC2)c1 | active: 28.2 µM |  |
| CC(C)Nc1ncnc2c1CN(C1CCCNCC1)C(=O)CN2C (centres undefined) | inconclusive: 89.1 µM [inhibitor, partial curve, poor fit] |  |
| COCC(C)NS(=O)(=O)c1ccc(NC(=O)c2nc(-c3ccccc3)oc2C)cc1 (centres undefined) |  | inactive: -13.2% |
| CCOC(=O)c1cccc(NC(=O)c2ncoc2-c2ccco2)c1 | inconclusive: 28.2 µM [inhibitor, partial curve, poor fit] |  |
| CCOc1cc(C(=O)NC(CC(=O)OC)c2cccs2)ccc1OC (centres undefined) |  | inactive: 16.7% |
| N#Cc1ccc(CN2CCCC(c3nc(-c4cnccn4)no3)CCNC(=O)CC2)cc1 (centres undefined) | inconclusive: 31.6 µM [inhibitor, partial curve, poor fit] |  |

| SMILES | Potency | activity change, negative = inhibition |
| --- | --- | --- |
| O=C1NC2(CCN(C(=O)c3cccnc3)C2)N=C1c1ccccn1 (centres undefined) | inconclusive: 35.5 µM [inhibitor, partial curve] |  |
| CC(=O)NC1CCN(C(=O)C2CCN(c3oc(-c4ccco4)nc3C#N)CC2)CC1 | inconclusive: 28.2 µM [inhibitor, partial curve, poor fit] |  |
| COc1cc(C)c(-c2nc(CN3CCCC(CN)C3)c(C)o2)cc1C (centres undefined) | inconclusive: 12.6 µM [inhibitor, partial curve] |  |
| Cc1cc(/C=C(/C#N)C(=O)OC(C)C)cc(C)c1OC(F)F |  | inactive: -10.4% |
| CC(C)CNC(=O)NC(=O)CN(C)C1CCCCCC1 |  | inactive: -2.3% |
| CCN1CCN(c2nc3ccccc3nc2C(C#N)S(=O)(=O)c2ccccc2)CC1 (centres undefined) | inconclusive: 20 µM [inhibitor, partial curve, poor fit] |  |
| Cc1ccccc1-c1nc(C#N)c(NCCCN(C)C)o1 | inconclusive: 25.1 µM [inhibitor, partial curve, poor fit] |  |
| CCc1ccc(C(=O)N2CCC3(CC2)N=C(c2cccc(Br)c2)NO3)cc1 | inconclusive: 20 µM [inhibitor, partial curve] |  |
| COc1ccc(NC(=O)/C=C\C(=O)N(c2ccc(C(C)C)cc2)C(C(=O)NCc2ccco2)c2ccc(C)cc2)cc1 (centres undefined) | inconclusive: 8.91 µM [inhibitor, partial curve, poor fit] |  |
| Cn1c2ccccc2n2c(=O)cc(-c3ccccc3)c(C#N)c12 | inconclusive: 22.4 µM [inhibitor, partial curve, poor fit] |  |
| N/C(=N\NS(=O)(=O)c1ccc(Cl)cc1)c1ccccn1 | inconclusive: 20 µM [inhibitor, partial curve, poor fit] |  |
| CC1(C(=O)N2CCOCC2)CN(Cc2ccccc2)Cc2ccc(Nc3ccccc3)nc21 (centres undefined) | active: 28.2 µM |  |
| COc1cccc(Nc2nc3cc(C)ccc3nc2NS(=O)(=O)c2ccc(Cl)cc2)c1 | inconclusive: 3.16 µM [inhibitor, partial curve, poor fit] |  |
| NC(=O)[C@H](Cc1ccc(O)cc1)NC(=O)C1=C[C@@H](NC(=O)c2cnccn2)[C@@H](O)[C@H](O)C1 | inconclusive: 28.2 µM [inhibitor, partial curve, poor fit] |  |
| O=C(NC1CCCCCC1)C1(Cc2nc3ccccc3s2)CCCC1 |  | inactive: -1.66% |
| Cc1ccc(SCCNC(=S)Nc2ccc(Cl)cc2C)cc1 |  | inactive: -20% |
| CN(C)C(=O)N1Cc2ccccc2OC2(CCN(C(=O)Cc3csc(N)n3)CC2)C1 | inconclusive: 89.1 µM [inhibitor, partial curve, poor fit] |  |
| Oc1ccccc1-c1nc(-c2cccs2)c(-c2cccs2)[nH]1 | inconclusive: 31.6 µM [inhibitor, partial curve, poor fit] |  |
| COc1ccc(CN2CCCC(c3nn(-c4ccccc4)c(=O)[nH]3)C2)cc1 (centres undefined) | inconclusive: 15.8 µM [inhibitor, single point] |  |
| Cc1ccc(S(=O)(=O)N2CCN(C(=O)C(CC(C)C)NC(N)=O)CC2)cc1 (centres undefined) |  | inactive: 10.9% |
